In PubChem BioAssay AID1794842 (National Center for Advancing Translational Sciences (NCATS), 2023):
Out of some 2,800 compounds screened, fewer than 10 were called active. Calls follow the shape of the dose curve; as a rule, active = well fitted curve in the direction sought with a large enough effect; inconclusive = small, poorly fitted or top-dose-only effect, or another doubt; inactive = no such curve, though single readings can be large or run the other way. This is one part of the list.
Also: % of control where 0% means no effect.

The molecules below were run against Metallo-beta-lactamase type 2 (Klebsiella pneumoniae) (UniProt C7C422) (assay: qHTS to identify inhibitors of the New Delhi Metallo-beta-lactamase (NDM): Meropenem screen against the machine-based learning selections.). Settings: Purified NDM-1, meropenem hydrolysis, absorbance 300 nm; at 38.4 µM (top of the series) unless noted.
Sequence of UniProt C7C422 (C7C422 whole entry, looked up): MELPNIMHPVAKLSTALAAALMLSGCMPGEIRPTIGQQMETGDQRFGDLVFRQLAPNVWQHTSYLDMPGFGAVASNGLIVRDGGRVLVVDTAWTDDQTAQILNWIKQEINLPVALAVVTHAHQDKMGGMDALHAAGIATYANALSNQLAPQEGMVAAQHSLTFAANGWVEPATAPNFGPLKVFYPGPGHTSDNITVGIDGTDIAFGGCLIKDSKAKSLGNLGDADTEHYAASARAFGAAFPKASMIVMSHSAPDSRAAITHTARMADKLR
How it was run: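 Hydrolysis by 2 nM NDM-1 was followed by absorbance after >30 min compound preincubation in HEPES pH 7.0 buffer with 1 uM Zn2SO4. For nitrocefin (16.7 uM, 15 min, 485 nm) and meropenem (50 uM, 30 min, 300 nm), each substrate ran on separate plates.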
`Cc1cc(C[C@@H]2COC[C@@H]2NC(=O)CCCn2cnc3ccccc3c2=O)on1` was tested, and the activity change, negative = inhibition was inactive: -0.884%. With `Cc1cn(CC(=O)NC2CCOC3(CCOCC3)C2)c(=O)[nH]c1=O` (configuration not stated) the activity change, negative = inhibition was inactive: -0.851%. `Cc1cc(C)c(CNC(=O)c2nc(-c3ccccc3)cc3[nH]ccc23)c(=O)[nH]1` was tested, and the activity change, negative = inhibition was inactive: 3.74% [at 57.5 µM]. `COc1cc(C(=O)N2C[C@@H](C)[C@@](C)(O)C2)ccn1` was tested, and the activity change, negative = inhibition was inactive: 1.44%. For `C[C@H]1[C@@H]2[C@@H](O)C([C@H](C)C(=O)N(C)CCC#N)CC[C@@]2(C)CC[C@@H]1NS(C)(=O)=O` (some centres not stated), the activity change, negative = inhibition was inactive: 0.164% [at 57.5 µM]. For `Oc1ccccc1CN1CCNc2cc(-c3ccccc3)ncc2C1`, the activity change, negative = inhibition was inactive: 2.68% [at 57.5 µM]. In the case of `Cc1ccsc1[C@@H]1CCN(Cc2cccn2-c2cccnc2)C[C@H]1O`, the activity change, negative = inhibition is reported as inactive: 0.257%. `COCC(=O)N1CC[C@@H](CC(=O)O)[C@@H](CC2=NCCc3cc(OC)ccc32)C1` was tested, and the activity change, negative = inhibition was inactive: 14.6% [at 57.5 µM]. In the case of `O=C(CCc1cccnc1)N1CCCC(CCc2cccc(F)c2)C1` (configuration not stated), the activity change, negative = inhibition is reported as inactive: -0.812%. For `O=C(NCc1cccc(Cl)c1)c1cc2c(s1)CCN(C(=O)c1ccccc1)C2`, the activity change, negative = inhibition was inactive: 3.29%. In the case of `NC(=O)CN1CCC(c2nc(-c3ccc4nc[nH]c4c3)no2)CC1`, the activity change, negative = inhibition is reported as inactive: 1.59%. `NC(=O)c1cccc(-c2ccc3c(n2)CN(Cc2ccc(F)cc2)C(=O)CO3)c1` was tested, and the activity change, negative = inhibition was inactive: -0.257% [at 57.5 µM]. `COc1ccc(-c2noc([C@@H]3Cc4nc[nH]c4CN3Cc3ccc(NC(C)=O)cc3)n2)cc1` was tested, and the activity change, negative = inhibition was inactive: 10.7%. `N#Cc1cccc(C(=O)Nc2ccc([C@H]3OCC(=O)N(C4CCOCC4)[C@@H]3CO)cc2)c1` was tested, and the activity change, negative = inhibition was inactive: 1.47%. In the case of `CC(C)C[C@@H](NC(=O)C1=C[C@@H](NC(=O)c2ccco2)[C@@H](O)[C@H](O)C1)C(N)=O`, the activity change, negative = inhibition is reported as inactive: 4.55% [at 57.5 µM]. In the case of `CC(C)NC(=O)[C@@H]1C[C@H](N)CN1C(=O)c1ccc(-n2cnnn2)cc1`, the activity change, negative = inhibition is reported as inactive: -0.07%. With `COc1ccc(S(=O)(=O)N2C[C@@H](F)[C@@H](OCc3nc4ccccc4o3)C2)cc1` the activity change, negative = inhibition was inactive: 1.3% [at 57.5 µM]. `CCOC(=O)C1=C(C)N=C2SC=C(CC(=O)N3CCCCC3)N2C1c1cccc(OC)c1` (configuration not stated) was tested, and the activity change, negative = inhibition was inactive: 2.27%. In the case of `N#Cc1cccc(NC(=O)O[C@@H]2CO[C@H]3[C@@H]2OC[C@@H]3n2nnnc2-c2ccc(-c3ccccc3)cc2)c1`, the activity change, negative = inhibition is reported as inactive: 7.33%. For `C#CCNC(=O)[C@@H]1Cc2cn(Cc3cc(C)on3)c3cccc(c23)[C@H](CC(C)C)N1`, the activity change, negative = inhibition was inactive: 3.45% [at 57.5 µM]. With `O=C(Nc1ccccc1)O[C@@H]1CO[C@H]2[C@@H]1OC[C@@H]2NC(=O)c1ccc(C(F)(F)F)cc1` the activity change, negative = inhibition was inactive: 2.28%. For `CC(C)CNC(=O)c1ccnc(-c2nnc3ccc(Nc4ccccc4)nn23)c1`, the activity change, negative = inhibition was inactive: 5.19% [at 57.5 µM]. In the case of `Cc1ccc(C2(O)CCN(CC(c3ccccc3)c3ccccc3)CC2)nc1`, the activity change, negative = inhibition is reported as inactive: -0.731%. In the case of `O=C(NC1CCCCC1)[C@H]1O[C@H](CCN2CCN(Cc3ccccc3)CC2)CC[C@@H]1O`, the activity change, negative = inhibition is reported as inactive: -2.78% [at 57.5 µM]. With `CC(=O)Nc1ccc(C(O)[C@H]2COCC(=O)N2Cc2ccccc2F)cc1` (some centres not stated) the activity change, negative = inhibition was inactive: 0.957% [at 57.5 µM]. In the case of `O[C@@H]1C[C@@H](c2nc(Cc3ccccc3)no2)N(Cc2cc3ccccc3o2)C1`, the activity change, negative = inhibition is reported as inactive: 6.85% [at 57.5 µM]. With `O=C(COc1ccccc1)N1CCNc2cnc(Nc3cccc(F)c3)nc2C1` the activity change, negative = inhibition was inactive: 6.97% [at 57.5 µM]. In the case of `O=C(NC[C@H]1Cn2c(-c3ccccc3)cnc2CO1)C1CCOCC1`, the activity change, negative = inhibition is reported as inactive: 4.09% [at 57.5 µM]. For `O=C1N[C@@H]2CCN(S(=O)(=O)c3cccc(F)c3)[C@@H]2C(=O)N1c1ccc(F)cc1`, the activity change, negative = inhibition was inactive: -0.0746% [at 57.5 µM]. For `CC1(C(=O)NCCCn2ccnc2)COCc2cnc(Nc3ccccc3)nc21` (configuration not stated), the activity change, negative = inhibition was inactive: 0.432% [at 57.5 µM]. In the case of `COCc1ccc(C(=O)N[C@@H]2COCC[C@@H]2OCc2c(C)noc2C)o1`, the activity change, negative = inhibition is reported as inactive: -0.566%. For `COc1ccc(CN2CCNc3cnc(Nc4ccccc4)cc3C2)cn1`, the activity change, negative = inhibition was inactive: 15% [at 57.5 µM]. `Cc1ccc(S(=O)(=O)N2CCCC(Cn3c(C)nc4cccnc43)C2)c(C)c1` (configuration not stated) was tested, and the activity change, negative = inhibition was inactive: 1.73%. In the case of `CNC(=O)c1cccc(-c2cnc(Nc3ccccc3)c3c2CCO3)c1`, the activity change, negative = inhibition is reported as inactive: 9.05% [at 57.5 µM]. In the case of `CS(=O)(=O)NC1CCN(c2nc(-c3cccnc3)nc3c2CNC3)CC1`, the activity change, negative = inhibition is reported as inactive: 5.15%. For `O=C1NCCOCCN(C(=O)NCCc2ccccc2)[C@@H]2CCCC[C@H]12`, the activity change, negative = inhibition was inactive: -0.134%. In the case of `Cc1ccc(-c2ccc3nnc(CNC(=O)Cc4cccc(F)c4)n3n2)cc1`, the activity change, negative = inhibition is reported as inactive: 2.42%. In the case of `CC(C)NC(=O)C[C@@H]1CCNC[C@@H]1Cc1cc(CC2CCCCC2)on1`, the activity change, negative = inhibition is reported as inactive: 44.9% [at 57.5 µM]. For `Cn1cccc1C(=O)N1CC[C@H](CO)[C@H](NC(=O)C2CC2)C1`, the activity change, negative = inhibition was inactive: -0.0114%. `Cc1cc(C)n(Cc2cccc(C(=O)N3CCC4(CC3)[C@H](O)C[C@@H]4O)c2)n1` was tested, and the activity change, negative = inhibition was inactive: 0.758%. For `CN1[C@H](C(=O)O)C[C@H](C(=O)NCC(C)(C)CO)[C@@H]1c1cccc(F)c1F`, the activity change, negative = inhibition was inactive: 53.2%. In the case of `COc1ccc(C(=O)N2C[C@@H]3OCC(=O)N(Cc4nccn4C)[C@@H]3C2)cc1`, the activity change, negative = inhibition is reported as inactive: 0.225% [at 57.5 µM]. `CNS(=O)(=O)c1ccc(CN2CC3(CCNCC3)CC2C(=O)O)cc1` (configuration not stated) was tested, and the activity change, negative = inhibition was inactive: 37.2%. For `O=C1Nc2ccccc2CC12CCN(CC1CC1)CC2`, the activity change, negative = inhibition was inactive: -0.718% [at 57.5 µM]. For `CN1C[C@@H](NC(=O)C2CCCCC2)C[C@H]1c1nc(-c2ccc3c(c2)OCO3)no1`, the activity change, negative = inhibition was inactive: -1.6% [at 57.5 µM]. `Cc1nn(-c2ccccn2)c(C)c1[C@@H]1C=C[C@@H](NC(=O)NC(C)C)C1` was tested, and the activity change, negative = inhibition was inactive: 0.439% [at 57.5 µM]. In the case of `COCCN1CCN(C[C@@H]2C=C(C)[C@H](Cc3nnc(-c4cccnc4)o3)C[C@H]2C(C)C)CC1`, the activity change, negative = inhibition is reported as inactive: -0.367%.
